According to US11572398B2, “GLP-1 derivatives and uses thereof” (Novo Nordisk A/S, priority 2014, dated 2023):
At least one compound was matched to its structure with a doubt left. Non-standard residues stand in square brackets, D forms with d. Residues, ends and D or L forms follow the SMILES beside them. *: point of attachment. X1 = O=C(O)CCCCCCCCCCCCCCCCCCC(=O)NC[C@H]1CC[C@H](C(=O)N[C@@H](CCC(=O)NCCOCCOCC(=O)NCCOCCOCC(=O)NCCOCCOCC(=O)NCCOCCOCC(=O)NCCOCCOCC(=O)NCCOCCOCC(=O)NCCCN(CCCNC(=O)COCCOCCNC(=O)COCCOCCNC(=O)COCCOCCNC(=O)COCCOCCNC(=O)COCCOCCNC(=O)COCCOCCNC(=O)CC[C@H](NC(=O)[C@H]2CC[C@H](CNC(=O)CCCCCCCCCCCCCCCCCCC(=O)O)CC2)C(=O)O)CC(=O)*)C(=O)O)CC1; Aib = CC(C)(N)C(=O)O

Test system: lean Sprague Dawley male rats
Assay: Pharmacodynamic study in rats: acute effect on food intake and body weight
Format: in vivo
Conditions: change versus baseline

Row | SMILES | % change in body weight 48 h (single s.c. dose 100 nmol/kg) [%] | % change in food intake 48 h (single s.c. dose 100 nmol/kg) [%] | % change in body weight 48 h (single s.c. dose 50 nmol/kg) [%] | % change in food intake 48 h (single s.c. dose 50 nmol/kg) [%]
1 | CC[C@H](C)[C@H](NC(=O)[C@H](Cc1ccccc1)NC(=O)[C@H](CCC(=O)O)NC(=O)[C@H](CCCNC(=N)N)NC(=O)[C@H](C)NC(=O)[C@H](C)NC(=O)[C@H](CCC(N)=O)NC(=O)[C@H](CCC(=O)O)NC(=O)[C@H](CCC(=O)O)NC(=O)[C@H](CC(C)C)NC(=O)[C@H](Cc1ccc(O)cc1)NC(=O)[C@H](CO)NC(=O)[C@H](CO)NC(=O)[C@@H](NC(=O)[C@H](CC(=O)O)NC(=O)[C@H](CO)NC(=O)[C@@H](NC(=O)[C@H](Cc1ccccc1)NC(=O)[C@@H](NC(=O)CNC(=O)[C@H](CCC(=O)O)NC(=O)C(C)(C)NC(=O)[C@@H](N)Cc1c[nH]cn1)[C@@H](C)O)[C@@H](C)O)C(C)C)C(=O)N[C@@H](C)C(=O)N[C@@H](Cc1c[nH]c2ccccc12)C(=O)N[C@@H](CC(C)C)C(=O)N[C@H](C(=O)N[C@@H](CCCNC(=N)N)C(=O)NCC(=O)N[C@@H](CCCNC(=N)N)C(=O)N[C@@H](CCCCNC(=O)CN(CCCNC(=O)COCCOCCNC(=O)COCCOCCNC(=O)COCCOCCNC(=O)COCCOCCNC(=O)COCCOCCNC(=O)COCCOCCNC(=O)CC[C@H](NC(=O)[C@H]1CC[C@H](CNC(=O)CCCCCCCCCCCCCCCCCCC(=O)O)CC1)C(=O)O)CCCNC(=O)COCCOCCNC(=O)COCCOCCNC(=O)COCCOCCNC(=O)COCCOCCNC(=O)COCCOCCNC(=O)COCCOCCNC(=O)CC[C@H](NC(=O)[C@H]1CC[C@H](CNC(=O)CCCCCCCCCCCCCCCCCCC(=O)O)CC1)C(=O)O)C(=O)O)C(C)C [Example 3] | −8 | −52 | – | –
2 | CC[C@H](C)[C@H](NC(=O)[C@H](Cc1ccccc1)NC(=O)[C@H](CCC(=O)O)NC(=O)[C@H](CCCNC(=N)N)NC(=O)[C@H](C)NC(=O)[C@H](C)NC(=O)[C@H](CCC(N)=O)NC(=O)[C@H](CCC(=O)O)NC(=O)[C@H](CCC(=O)O)NC(=O)[C@H](CC(C)C)NC(=O)[C@H](Cc1ccc(O)cc1)NC(=O)[C@H](CO)NC(=O)[C@H](CO)NC(=O)[C@@H](NC(=O)[C@H](CC(=O)O)NC(=O)[C@H](CO)NC(=O)[C@@H](NC(=O)[C@H](Cc1ccccc1)NC(=O)[C@@H](NC(=O)CNC(=O)[C@H](CCC(=O)O)NC(=O)C(C)(C)NC(=O)[C@@H](N)Cc1c[nH]cn1)[C@@H](C)O)[C@@H](C)O)C(C)C)C(=O)N[C@@H](C)C(=O)N[C@@H](Cc1c[nH]c2ccccc12)C(=O)N[C@@H](CC(C)C)C(=O)N[C@H](C(=O)N[C@@H](CCCNC(=N)N)C(=O)NCC(=O)N[C@@H](CCCNC(=N)N)C(=O)N1CCC[C@H]1C(=O)N[C@@H](CCCCNC(=O)CN(CCCNC(=O)COCCOCCNC(=O)COCCOCCNC(=O)COCCOCCNC(=O)COCCOCCNC(=O)COCCOCCNC(=O)COCCOCCNC(=O)CC[C@H](NC(=O)[C@H]1CC[C@H](CNC(=O)CCCCCCCCCCCCCCCCCCC(=O)O)CC1)C(=O)O)CCCNC(=O)COCCOCCNC(=O)COCCOCCNC(=O)COCCOCCNC(=O)COCCOCCNC(=O)COCCOCCNC(=O)COCCOCCNC(=O)CC[C@H](NC(=O)[C@H]1CC[C@H](CNC(=O)CCCCCCCCCCCCCCCCCCC(=O)O)CC1)C(=O)O)C(=O)O)C(C)C [Example 10] (H-H[Aib]EGTFTSDVSSYLEEQAAREFIAWLVRGRPK(X1)-OH; N-terminus and C-terminus assumed) | – | – | −4 | −31
